These results are taken from patent publication US20240076343A1 (CEPHALON, published 2024).

Common to all, as to experiment: cell-based or functional assay
Experiment [1] addresses T1, intermediate-affinity hIL-2 receptor complex (IL-2Rβγ) on TF1+IL-2Rβ cells (human, UniProt P14784 27-551; P31785 23-369).
T1 sequence 1: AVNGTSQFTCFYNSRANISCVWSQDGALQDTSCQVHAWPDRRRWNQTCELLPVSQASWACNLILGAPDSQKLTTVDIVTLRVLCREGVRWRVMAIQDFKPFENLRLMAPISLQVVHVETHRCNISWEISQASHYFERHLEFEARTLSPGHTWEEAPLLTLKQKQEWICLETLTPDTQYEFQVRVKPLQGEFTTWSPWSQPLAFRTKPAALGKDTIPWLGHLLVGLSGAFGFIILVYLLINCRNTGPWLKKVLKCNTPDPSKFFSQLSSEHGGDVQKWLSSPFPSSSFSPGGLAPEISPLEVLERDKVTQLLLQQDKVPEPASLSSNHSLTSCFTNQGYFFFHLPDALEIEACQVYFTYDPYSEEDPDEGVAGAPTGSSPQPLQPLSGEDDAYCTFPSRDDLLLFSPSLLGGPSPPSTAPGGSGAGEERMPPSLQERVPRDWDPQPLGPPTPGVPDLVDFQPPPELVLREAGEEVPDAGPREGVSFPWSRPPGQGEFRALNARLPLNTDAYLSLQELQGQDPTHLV
T1 sequence 2: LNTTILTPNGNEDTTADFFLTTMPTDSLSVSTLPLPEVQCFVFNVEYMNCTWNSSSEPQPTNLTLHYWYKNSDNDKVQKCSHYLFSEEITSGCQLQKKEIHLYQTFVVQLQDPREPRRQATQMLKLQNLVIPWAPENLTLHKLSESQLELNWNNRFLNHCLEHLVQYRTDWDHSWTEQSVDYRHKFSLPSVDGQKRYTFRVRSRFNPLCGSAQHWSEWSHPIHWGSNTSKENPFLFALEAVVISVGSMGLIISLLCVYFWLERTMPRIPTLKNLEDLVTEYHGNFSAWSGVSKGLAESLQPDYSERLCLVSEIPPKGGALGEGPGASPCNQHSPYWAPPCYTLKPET

Experiment [2] addresses T2, high-affinity hIL-2 receptor (IL-2Rαβγ) on NK-92 cells (human, UniProt P01589 22-272; P14784 27-551; P31785 23-369).
T2 sequence 1: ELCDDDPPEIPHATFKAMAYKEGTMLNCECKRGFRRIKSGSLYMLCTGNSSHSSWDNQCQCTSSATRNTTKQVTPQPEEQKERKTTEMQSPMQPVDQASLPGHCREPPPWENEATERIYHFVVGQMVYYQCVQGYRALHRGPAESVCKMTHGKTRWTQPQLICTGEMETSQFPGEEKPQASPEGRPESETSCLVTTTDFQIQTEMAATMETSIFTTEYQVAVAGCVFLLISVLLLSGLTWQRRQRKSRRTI
T2 sequence 2: T1 sequence 1
T2 sequence 3: T1 sequence 2

Experiment [3] deals with T3, high affinity hIL-2 receptor (hIL-2Rαβγ) on NK-92 cells (human, UniProt P01589 22-272; P14784 27-551; P31785 23-369).
T3 sequence 1: T2 sequence 1
T3 sequence 2: T1 sequence 1
T3 sequence 3: T1 sequence 2

For experiment [4], the target named is T4, intermediate affinity hIL-2 receptor (hIL-2Rβγ) on TF1+IL-2Rβ cells (human, UniProt P14784 27-551; P31785 23-369).
T4 sequence 1: T1 sequence 1
T4 sequence 2: T1 sequence 2

Experiment [5] deals with T5, intermediate-affinity hIL-2 receptor (IL-2Rβγ) on TF1+IL-2Rβ cells (human, UniProt P14784 27-551; P31785 23-369).
T5 sequence 1: T1 sequence 1
T5 sequence 2: T1 sequence 2

Experiment [6] addresses T6, high-affinity hIL-2 receptor (IL-2Rαβγ) on NK-92 cells (human, UniProt P01589 22-272; P14784 27-551; P31785 23-369).
T6 sequence 1: T2 sequence 1
T6 sequence 2: T1 sequence 1
T6 sequence 3: T1 sequence 2
The source holds these as a separate data set.

Read-outs that look alike come from different tables or passages of the source. Some results are limits rather than exact numbers.

B1: hIL-2 Nterm light chain df (other)
heavy: EVQLVESGGGLVQPGRSLKLSCAVSGFTFSDYAMAWVRQAPKKGLEWVATISYDGSRTYYRDSVKGRFTISRDNAKITLYLQMDSLRSEDTATYYCARHGSGYFDYWGQGVMVTVSS[not shown - human IgG1 constant region]
light: [not shown - about 150 residues]DTVLTQSPALAVSPGERVTISCRASESVRTGVHWYQQKPGQQPKLLIYGASNLESGVPARFSGSGSGTDFTLTIDPVEADDTATYFCQQSWNDPFTFGSGTKLEIKRTVAAPSVFIFPPSDEQLKSGTASVVCLLNNFYPREAKVQWKVDNALQSGNSQESVTEQDSKDSTYSLSSTLTLSKADYEKHKVYACEVTHQGLSSPVTKSFNRGEC
Turning to B1, the “Fold change from rhIL-2 (TF1 + IL-2Rβ)” value in experiment [1] stood at 1 fold. Further, the “Fold change from rhIL-2 (NK-92)” value in experiment [2] is roughly 1 fold.

B2: hIL-2 Cterm light chain df (other)
heavy: B1 heavy
light: DTVLTQSPALAVSPGERVTISCRASESVRTGVHWYQQKPGQQPKLLIYGASNLESGVPARFSGSGSGTDFTLTIDPVEADDTATYFCQQSWNDPFTFGSGTKLEIKRTVAAPSVFIFPPSDEQLKSGTASVVCLLNNFYPREAKVQWKVDNALQSGNSQESVTEQDSKDSTYSLSSTLTLSKADYEKHKVYACEVTHQGLSSPVTKSFNRGEC[not shown - about 150 residues]
As for B2, the “Fold change from rhIL-2 (TF1 + IL-2Rβ)” value in experiment [1] amounted to 1 fold.

B3: 1H3-hIgG1-L6-hCD25(1-164)-L20-hIL-2 (E15A) (other)
heavy: EVQLVESGGGLVQPGRSLKLSCAVSGFTFSDYAMAWVRQAPKKGLEWVATISYDGSRTYYRDSVKGRFTISRDNAKITLYLQMDSLRSEDTATYYCARHGSGYFDYWGQGVMVTVSS[not shown - human IgG1 constant region]SGGGGSELCDDDPPEIPHATFKAMAYKEGTMLNCECKRGFRRIKSGSLYMLCTGNSSHSSWDNQCQCTSSATRNTTKQVTPQPEEQKERKTTEMQSPMQPVDQASLPGHCREPPPWENEATERIYHFVVGQMVYYQCVQGYRALHRGPAESVCKMTHGKTRWTQPQLICTSGGGGSGGGGSGGGGSGGGS[not shown - about 150 residues]
light: DTVLTQSPALAVSPGERVTISCRASESVRTGVHWYQQKPGQQPKLLIYGASNLESGVPARFSGSGSGTDFTLTIDPVEADDTATYFCQQSWNDPFTFGSGTKLEIKRTVAAPSVFIFPPSDEQLKSGTASVVCLLNNFYPREAKVQWKVDNALQSGNSQESVTEQDSKDSTYSLSSTLTLSKADYEKHKVYACEVTHQGLSSPVTKSFNRGEC
For B3, in experiment [3], the “Agonistic Activity (NK-92)” value worked out at 90% and the “Fold change from rhIL-2 (NK-92)” value is 14 fold. Further, the “Fold change from rhIL-2 (TF1 + IL-2Rβ)” value in experiment [4] turned out to be 13 fold.

B4: 1H3-hIgG1-L6-hCD25(1-164)-L20-hIL-2 (D20Y) (other)
heavy: EVQLVESGGGLVQPGRSLKLSCAVSGFTFSDYAMAWVRQAPKKGLEWVATISYDGSRTYYRDSVKGRFTISRDNAKITLYLQMDSLRSEDTATYYCARHGSGYFDYWGQGVMVTVSS[not shown - human IgG1 constant region]SGGGGSELCDDDPPEIPHATFKAMAYKEGTMLNCECKRGFRRIKSGSLYMLCTGNSSHSSWDNQCQCTSSATRNTTKQVTPQPEEQKERKTTEMQSPMQPVDQASLPGHCREPPPWENEATERIYHFVVGQMVYYQCVQGYRALHRGPAESVCKMTHGKTRWTQPQLICTSGGGGSGGGGSGGGGSGGGS[not shown - about 150 residues]
light: B3 light
Regarding B4, in experiment [3], the “Agonistic Activity (NK-92)” value is 50% and the “Fold change from rhIL-2 (NK-92)” value was greater than 10000 fold. In experiment [4], the “Fold change from rhIL-2 (TF1 + IL-2Rβ)” value was greater than 10000 fold.

B5: hIL-2 Nterm heavy chain df (other)
heavy: [not shown - about 150 residues]EVQLVESGGGLVQPGRSLKLSCAVSGFTFSDYAMAWVRQAPKKGLEWVATISYDGSRTYYRDSVKGRFTISRDNAKITLYLQMDSLRSEDTATYYCARHGSGYFDYWGQGVMVTVSS[not shown - human IgG1 constant region]
light: B3 light
B5: the “Fold change from rhIL-2 (TF1 + IL-2Rβ)” value in experiment [1] stood at 2 fold.

B6: hIL-2 Nterm heavy chain L6 fusion (other)
heavy: [not shown - about 150 residues]SGGGGSEVQLVESGGGLVQPGRSLKLSCAVSGFTFSDYAMAWVRQAPKKGLEWVATISYDGSRTYYRDSVKGRFTISRDNAKITLYLQMDSLRSEDTATYYCARHGSGYFDYWGQGVMVTVSS[not shown - human IgG1 constant region]
light: B3 light
B6: in experiment [1], the “Fold change from rhIL-2 (TF1 + IL-2Rβ)” value came to 0 fold.

B7: 1H3-hIgG1-L6-hIL-2 (D20W/R38E) (other)
heavy: EVQLVESGGGLVQPGRSLKLSCAVSGFTFSDYAMAWVRQAPKKGLEWVATISYDGSRTYYRDSVKGRFTISRDNAKITLYLQMDSLRSEDTATYYCARHGSGYFDYWGQGVMVTVSS[not shown - about 450 residues with a human IgG1 Fc and changes]
light: B3 light
Take B7: the “Fold change from rhIL-2 (TF1 + IL-2Rβ)” value in experiment [5] is greater than 10000 fold. Moreover, the “Fold change from rhIL-2 (NK-92)” value in experiment [6] was greater than 10000 fold.
